According to PubChem BioAssay AID485281 (National Center for Advancing Translational Sciences (NCATS), 2010):
Screen size: about 350,000 compounds; about 260 (0.074%) were called active. The inconclusive results got no clear call from the source; some entries with a clear call stand among them for comparison. Calls come from the whole dose curve; as a rule, active = well fitted inhibition curve with a large enough effect; inconclusive = small, poorly fitted or top-dose-only effect; inactive = no such curve, though single readings can be large or run the other way. Potencies of inconclusive entries are doubtful fits and often do not repeat.

These molecules were tested against Ferritin light chain (Equus caballus) (UniProt P02791) (assay: qHTS Assay for Identification of Novel General Anesthetics). Settings: apoferritin/1-aminoanthracene competitive binding, fluorescence; series mostly up to 77.5 µM.
Procedure, shortened: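 Probe: 1-aminoanthracene (50% saturated, PBS). Protein: horse-spleen apoferritin, 10 uM. Incubation: 10 min, room temperature. Detection: 380 nm excitation, 535 nm emission. Analysis: normalized response, four-parameter Hill.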
Note: nearly all actives have a fitted effect of over 20% in size.
Potency is the fitted concentration of half-maximal effect; tags give direction and shape of the fitted curve.

Chain of UniProt P02791 (P02791 whole entry, looked up): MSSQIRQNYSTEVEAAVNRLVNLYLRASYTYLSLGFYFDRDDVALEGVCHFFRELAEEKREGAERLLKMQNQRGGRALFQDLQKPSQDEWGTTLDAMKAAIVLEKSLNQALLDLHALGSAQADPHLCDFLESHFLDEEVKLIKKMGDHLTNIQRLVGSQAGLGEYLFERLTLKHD

Potency, inactive:
O=C(COC(=O)C12CC3CC(CC(C3)C1)C2)Nc1ccc([N+](=O)[O-])cc1Br
Cc1ccc2oc(-c3ccc(NC(=O)CC(C)C)cc3)nc2c1
Cc1ccc(/C=C2\OC(=O)c3ccccc32)cc1
Cc1nc2oc3ccccc3c(=O)c2cc1C(=O)O
O=c1cc(-c2ccccc2)oc2cc(O)cc(O)c12
Cc1nc2ccc(NC(=O)c3cccc(C(F)(F)F)c3)cc2o1
Cc1ccc2c(c1)[nH]c1c(N3CCN(Cc4ccccc4)CC3)ncnc12
S=C(NCc1ccccc1)NC1CCSc2ccccc21 (stereo unspecified)
CC(=O)c1sc(N/N=C\c2cccc(Br)c2)nc1C
CCCn1c(=O)c2sccc2n2c(CCCC(=O)NCCc3ccc(Cl)cc3)nnc12
N#CC1=C(N)Oc2c(ccc3cccnc23)C1c1cccnc1 (stereo unspecified)
CN(c1ccccc1)c1nc2ccsc2c(=O)s1
CCOc1cc(-c2nc3ccccc3s2)ccc1O
c1ccc(-c2nc(-c3ccco3)n3ccccc23)cc1
COc1ccc(-c2cn3nc(SCC(=O)NC4CCCCC4)ccc3n2)cc1
Cc1ccc(C)c(OCC(=O)Nc2ccncc2)c1
O=C(CSc1nccn1Cc1ccccc1)NCc1ccc(F)cc1
COc1ccc(NC(=O)/C=C/c2cccc(F)c2)cn1
COc1ccc(C(=O)NCCn2cc(SCC(=O)Nc3cccc(C)c3)c3ccccc32)cc1

Potency, active:
CCn1c(SCC(=O)Nc2sc3c(c2C#N)CCC(C(C)(C)C)C3)nnc1-c1ccco1 (stereo unspecified) 28.2 µM

Potency, inconclusive:
Cc1nnc2n(Cc3ccccc3)c(=O)c3c4c(sc3n12)COC(C)(C)C4 22.4 µM [inhibitor, partial curve]
C/C(NC(=O)c1ccccc1)=C1/C(=O)CC2C1C2(C)C (stereo unspecified) 39.8 µM [inhibitor, single point]
CC(C)(C)c1ccc(N2C(=O)Cc3c2nc(N)c(C#N)c3N)cc1 50.1 µM [inhibitor, single point]
Cc1ccc(NC(=O)c2ccc(Cl)c(NC(=O)c3cccs3)c2)cc1 28.2 µM [inhibitor, partial curve]
CCOC(=O)c1c(C)[nH]c(N=Nc2ccccc2)c1C 25.1 µM [inhibitor, partial curve]
CC(=Nc1cccc(O)c1)c1sc2ccccc2c1O 50.1 µM [inhibitor, single point]
CC(C(=O)NC(C)(C)C)N1C(=O)c2cccc3cccc(c23)C1=O (stereo unspecified) 20 µM [inhibitor, partial curve]
COc1ccc(C2CC(=O)C=C(NNS(=O)(=O)c3ccc(C)cc3)C2)cc1 (stereo unspecified) 31.6 µM [inhibitor, partial curve]
Cc1ccc(OCCCC(=O)N2CCOCC2)c(C)c1 39.8 µM [inhibitor, single point]
O=C1CC2(CCCC2)CC(=O)N1c1ccccc1 7.94 µM [inhibitor, partial curve]
Cc1cc2oc(=O)cc(-c3ccccc3)c2c(C)c1-c1ccoc1 31.6 µM [inhibitor, partial curve]
Cc1nnc(N/N=C/c2cccc(OCc3ccc(Cl)c(Cl)c3)c2)n1N 14.1 µM [inhibitor, partial curve]
CC1(C)C2CCC1(C)C(OC(=O)CSc1nc(N)cc(=O)[nH]1)C2 (stereo unspecified) 6.31 µM [inhibitor, partial curve]
Cc1ccccc1-c1nc(CS(=O)CC(=O)NCc2ccc3c(c2)OCO3)c(C)o1 (stereo unspecified) 35.5 µM [inhibitor, partial curve]
CN1CC(c2ccccc2)C2(SC(=S)N(Cc3ccco3)C2=O)C12C(=O)Nc1ccccc12 (stereo unspecified) 11.2 µM [inhibitor, partial curve]
CCCCn1c(-c2nonc2N)nc2ccccc21 39.8 µM [inhibitor, partial curve]
Cc1ccccc1CSCCNC(=O)CN(c1ccc2c(c1)OCO2)S(C)(=O)=O 20 µM [inhibitor, partial curve]
COc1ccccc1/C=C/C(=O)NC(=S)N(C)C1CCCCC1 39.8 µM [inhibitor, single point]
CN(C)c1ccc(/C=C/c2ccc3c4ccccc4ccc3[n+]2-c2ccccc2)cc1 35.5 µM [inhibitor, partial curve]
O=C(O)C(Cc1ccccc1)N1C(=O)/C(=C/c2cccc3ccccc23)SC1=S (stereo unspecified) 28.2 µM [inhibitor, single point]
O=[N+]([O-])c1ccccc1OCCCn1cnc2ccccc21 25.1 µM [inhibitor, partial curve]
CN(c1cccc(NC(=O)CN(c2ccc(C34CC5CC(CC(C5)C3)C4)cc2)S(C)(=O)=O)c1)S(C)(=O)=O 3.98 µM [inhibitor, partial curve]
Oc1ccc(COCc2ccccc2)c2cccnc12 22.4 µM [inhibitor, partial curve]
CCn1cc(CNCc2cn(C)nc2-c2ccc(C3CCCCC3)cc2)cn1 35.5 µM [inhibitor, partial curve]
Cc1ccc(SCC(=O)Nc2ccc3c(c2)OCCO3)cc1 28.2 µM [inhibitor, single point]
FC(F)(F)c1ccc(Cl)c(NC2=NCCCCC2)c1 11.2 µM [inhibitor, single point]
[O-]/C(=C(\C(=S)NCc1ccc2c(c1)OCO2)[n+]1ccccc1)c1ccc(Cl)s1 22.4 µM [inhibitor, partial curve]
Cc1ccc(N2CC(NC(=O)/C=C\c3ccc4c(c3)OCO4)CC2=O)cc1C (stereo unspecified) 0.891 µM [inhibitor, full curve, poor fit]
Cc1cccc(NC(=O)N2CCCCCC2)c1 7.94 µM [inhibitor, full curve]
COC(=O)c1scc(-c2ccccc2)c1S(=O)(=O)Nc1ccccc1 15.8 µM [inhibitor, partial curve]
CC1(C(=O)N/N=C/c2ccccc2)CC1(Cl)Cl (stereo unspecified) 31.6 µM [inhibitor, partial curve]
S=c1[nH]nc(C23CC4CC(CC(C4)C2)C3)n1Cc1ccco1 20 µM [inhibitor, partial curve]
COc1ccc(N2CCN(C(=O)CCC(=O)c3cc(C)sc3C)CC2)cc1 35.5 µM [inhibitor, partial curve]
O=C(OCC(=O)C12CC3CC(CC(C3)C1)C2)c1cnccn1 3.16 µM [inhibitor, full curve]
CCCCCCCCNC(=O)C(CCC(=O)OCc1ccccc1)NC(C)=O (stereo unspecified) 28.2 µM [inhibitor, partial curve]
CC(=O)N(C(C)=O)N1C(=O)/C(=C/c2ccc(Cl)cc2)SC1=S 22.4 µM [inhibitor, partial curve]
Cc1cc(C)cc(NC(=O)CCC(=O)N2Cc3ccccc3Oc3ncccc32)c1 14.1 µM [inhibitor, partial curve]
S=C(NCCc1ccccc1)NN=C1CCCCCC1 10 µM [inhibitor, partial curve]
N#CCCN(Cc1cccnc1)S(=O)(=O)c1ccc(S(=O)(=O)NC2CCCCC2)cc1 14.1 µM [inhibitor, partial curve]
CCSc1nc2c(c(=O)[nH]c(=O)n2C)n1CC(O)COc1ccccc1C (stereo unspecified) 0.794 µM [inhibitor, full curve, poor fit]
CC1CCN(S(=O)(=O)c2ccc3c(c2)oc(=O)n3CC(=O)NCc2ccc(F)cc2)CC1 8.91 µM [inhibitor, partial curve]
COc1ccc(/C=C2\CCc3ccccc3C2=O)cc1O 28.2 µM [inhibitor, single point]
CCCCOC(=O)c1ccc(NC(=O)c2cc(Cl)c(Cl)cc2C(=O)O)cc1 39.8 µM [inhibitor, partial curve]
Cc1cc2ncn(CCOc3ccccc3)c2cc1C 35.5 µM [inhibitor, partial curve]
CSc1nccc(-c2cc(Cl)sc2Cl)n1 28.2 µM [inhibitor, partial curve]
O=C(CNS(=O)(=O)c1ccc(Br)s1)NCC1COc2ccccc2O1 (stereo unspecified) 35.5 µM [inhibitor, single point]
Cn1c(N)c(C(=O)COC(=O)CCC2CCCCC2)c(=O)n(C)c1=O 35.5 µM [inhibitor, partial curve]
COc1ccc(-n2ccnc(NCc3ccc(Cl)cc3)c2=O)cc1 2 µM [inhibitor, full curve]
O=C(NCCNc1ccc(Cl)cc1[N+](=O)[O-])c1cccnc1 39.8 µM [inhibitor, partial curve]
Cc1ccccc1C(=O)Nc1ccc(O)c2c(=O)cc(-c3ccccc3Cl)oc12 11.2 µM [inhibitor, partial curve]
Cc1oc2ncn(CC(C)C)c(=O)c2c1C(=O)N1CCN(c2cccc(C(F)(F)F)c2)CC1 7.08 µM [inhibitor, full curve, poor fit]
